Test results as given in PubChem BioAssay AID1479 (National Center for Advancing Translational Sciences (NCATS), 2009).
Several values for one entry are separate records, joined by “and”; a condition that tells them apart may be missing. Identical values can stand only once. The campaign covered roughly 280,000 compounds. About 820 (0.29%) were called active. Inconclusive results, whose numbers are uncertain, are shown with a selection of clear calls. Calls follow the shape of the dose curve; as a rule, active = well fitted curve in either direction with a large enough effect; inconclusive = small, poorly fitted or top-dose-only effect; inactive = flat fitted curve, though single readings scatter. Potencies beside an inconclusive call are fits to weak or partial responses and may not hold up.

Test: Total Fluorescence Counterscreen for Inhibitors of the Interaction of Thyroid Hormone Receptor and Steroid Receptor Coregulator 2
Settings: TRb/SRC2 Texas Red total fluorescence interference; series mostly up to 106 µM
Excerpt: NIH Molecular Libraries Probe Production Network [MLPCN]
NIH Chemical Genomics Center [NCGC]
Assay Provider: R. Kip Guy, St. Jude Children's Research Hospital
Thyroid receptor (TR) regulates many homeostatic processes including basal metabolism, cardiovascular function, body weight, and lipid trafficking. TR modulators are potential therapeutics for obesity and hyperlipidemias but current thyroid analogs have undesirable side effects, particularly cardiac stimulation. To identify inhibitors that specifically prevent the interaction of TR with the steroid receptor […] 2 (SRC2), a fluorescence polarization assay was screened. This assay detects interaction of the ligand-binding domain of human TRb with a Texas Red labeled SRC2 peptide, corresponding to a 20 amino acid region of the nuclear receptor interaction domain (Arnold et al., 2006). Total fluorescence (555 nm excitation and 632 nm emission) was measured to identify potential fluorescent and light absorbing compounds. Such compounds may be artifacts that interfere with the fluorescence polarization assay.
Arnold, L. A.; Estebanez-Perpina, E.; Togashi, M.; Shelat, A.; Ocasio, C. A.; McReynolds, A. C.; Nguyen, P.; Baxter, J. D.; Fletterick, R. J.; Webb, P.; Guy, R. K. A high-throughput screening method to identify small molecule inhibitors of thyroid hormone receptor coactivator binding. Sci STKE 2006, p 13.
NCGC Assay Protocol Summary:
For screening, 5 uL/well 0.6 uM TRb and 20 nM SRC2 Texas Red in protein buffer (20mM Tris hydrochloride, 100mM NaCl, 10% glycerol, 1mM EDTA, 0.01% NP-40, 1mM DTT, 1uM T3 and 5% DMSO) was dispensed into black solid 1536-well plates (Grenier) using a solenoid-based dispenser. Following transfer of 23 nL compound or DMSO vehicle by a pin tool, the plates were centrifuged 15 s at 1000 RPM and incubated 5 hr at ambient temperature. The plates were read by an Envision (Perkin Elmer) to detect fluorescence polarization of SRC2 Texas Red (555 nm excitation and 632 nm emission). Data were normalized to unbound (all components except TRb) and bound SRC2 Texas Red controls. Total fluorescence (TF) was calculated as follows: TF = S + 2P where S and P are fluorescence readings in the parallel and perpendicular channels, respectively.
Keywords: NIH Roadmap, MLPCN, MLI, MLSMR, qHTS, NCGC, qHTS, thyroid hormone receptor, steroid receptor coactivator, fluorescence polarization
Potency is read from the fitted curve at half-maximal effect; tags tell the direction and shape of the fitted curve or compound fluorescence and quenching.

SMILES	Potency
CSc1nc2sc3c(c2c(=O)n1Cc1ccccc1)CCC(C(C)(C)C)C3 (configuration not stated)	inconclusive: 0.0002 µM
COc1cc(N/N=C/c2ccccc2O)ncn1	inactive
Cc1c(C(=O)NCc2cccc(Cl)c2)sc2nc3n(c(=O)c12)CCC3	inconclusive: 1 µM [falling, full curve, poor fit]
Cn1c(=NC(=O)c2ccc(S(=O)(=O)N3CCCc4ccccc43)cc2)sc2cc(F)ccc21	inconclusive: 0.0045 µM [quencher, full curve]
COc1ccc2c(c1)[C@]1(C)CCC(=O)C[C@H]1CC2	inconclusive: 2.82 µM [falling, full curve, poor fit]
COc1ccccc1CNc1nc(-c2ccco2)nn1S(=O)(=O)c1ccc2ccccc2c1	active: 1120 µM [quencher]
O=C(NCCSc1c(-c2ccccc2)[nH]c2ccccc12)c1ccc(S(=O)(=O)N2CCOCC2)cc1	inactive
CCOC(=O)CN(C(=O)CSc1nnc(C)n1-c1ccccc1)c1cccc([N+](=O)[O-])c1	inactive
COc1ccccc1C(=O)Nc1nnc(S(=O)(=O)N(C)c2ccc(Cl)cc2)s1	inconclusive: 89.1 µM [falling, partial curve, poor fit]
COCCNC(=S)N/N=C(\C)c1ccc(O)cc1	inconclusive: 3.98 µM [falling, full curve, poor fit]
CCOc1ccc(CCNC(=O)CSc2cc(=O)n(C)c3ccc(Cl)cc23)cc1OCC	inconclusive: 8.91 µM [falling, full curve, poor fit]
Cc1cccc(CNC(=O)c2cnc3sc(N4CCCCCC4)nn3c2=O)c1	inconclusive: 1000 µM [falling, partial curve, poor fit]
Clc1cccc(CSc2nnc(C3CCNCC3)o2)c1	inconclusive: 355 µM [falling, partial curve, poor fit]
COC(=O)CCN(C(=O)C1CCN(S(=O)(=O)c2c(C)noc2/C=C/c2ccccc2F)CC1)c1ccccc1	inconclusive: 0.01 µM [quencher, full curve]
CCOC(=O)/C(C#N)=C/c1ccc(-c2ccc(C)cc2)o1	inconclusive: 282 µM [falling, partial curve, poor fit]
CCCN(CCC)C(=O)Cn1c(=O)n(Cc2ccc(C(=O)NCCc3ccc(Cl)cc3)cc2)c(=O)c2ccccc21	inconclusive: 0.708 µM [falling, full curve, poor fit]
COc1ccc(OC)c(-c2noc(N3CCN(c4cccc(C)c4C)CC3)n2)c1	inconclusive: 28.2 µM [quencher, full curve]
CCOC(=O)c1c(S(=O)(=O)NCC(=O)N(C)c2ccc(C)cc2)c(C)n(C)c1C	inconclusive: 1000 µM [falling, partial curve, poor fit]
COCCNC(=O)c1cnc2sc(N3CCCCC3)nn2c1=O	inactive

SMILES	Potency
O=C(Cn1ncn2c(cc3sccc32)c1=O)NCCc1ccccc1	inconclusive: 20 µM [falling, full curve, poor fit]
O=C(/C=C/c1cccc(OCc2ccccc2)c1)c1cccnc1	inconclusive: 1000 µM [falling, partial curve, poor fit]
CCOC(=O)c1ccc(NC2=CC(c3ccc(OCC)cc3)N(c3ccc(C(=O)OCC)cc3)C2=O)cc1 (configuration not stated)	inconclusive: 11.2 µM [falling, full curve, poor fit]
CCOC(=O)c1c(/N=C/C2=C(O)CCCC2=O)sc2c1CCCC2	inconclusive: 44.7 µM [fluorescent, partial curve]
CCCCn1cc(S(=O)(=O)c2ccc(C)cc2)c(=O)c2cc(F)c(N3CCCCC3)cc21	inconclusive: 1000 µM [falling, partial curve, poor fit]
O=C(Cn1ccnc1[N+](=O)[O-])NCCO	inconclusive: 1.26 µM [falling, full curve, poor fit]
CCCN(c1c(C)n(C)n(-c2ccccc2)c1=O)S(=O)(=O)c1ccc(C)cc1	inconclusive: 2.82 µM [falling, full curve, poor fit]
COc1ccc(CNc2ncnc3c2nc2n3CCCC2)cc1	active: 17.8 µM [quencher]
COc1ccc(-c2ccc3c(n2)CCCN3C[C@H](O)CN2CCCc3nc(-c4ccc(Br)cc4)ccc32)cc1	inconclusive: 3.55 µM [falling, full curve, poor fit] and inconclusive: 10 nM [falling, full curve, poor fit]
O=C(COC(=O)c1cc([N+](=O)[O-])ccc1NCc1ccccc1)NC1CCCCC1	inconclusive: 112 µM [falling, partial curve, poor fit]
O=c1c2ccccc2c(C=Nc2ccc(S(=O)(=O)N3CCCCC3)cc2)c(O)n1-c1ccc(Cl)cn1	active: 35.5 µM [quencher]
CCc1cc(C(C)=O)c(O)cc1OCCCCCC(C)(C)c1nn[nH]n1	inconclusive: 56.2 µM [rising, partial curve, poor fit]
O=C(CN1C(=O)C2(SCC(=O)N2c2cccc(Cl)c2)c2ccccc21)NCCc1ccccc1 (configuration not stated)	inconclusive: 0.01 µM [falling, full curve, poor fit]
CCC(CC)C(=O)Nc1ccc2nc(SCC(=O)N3CCCC3)sc2c1	inconclusive: 112 µM [falling, partial curve, poor fit]
Cc1ccc(-c2nc(C)c(CCNC(=O)c3cccs3)s2)cc1	inconclusive: 0.0045 µM [quencher, full curve]
COc1ccc(CCNC(=O)CCn2c(=O)c3ccccc3n(Cc3ccccc3F)c2=O)cc1OC	inconclusive: 0.0112 µM [falling, full curve, poor fit]
O=c1cc(-c2ccc(O)cc2)oc2cc(O)cc(O)c12	inconclusive: 39.8 µM [quencher, partial curve]
COc1ccc(C2/C=C\[C@H](O[Si](C)(C)C(C)(C)C)[C@H](C(C)C)CC(=O)N2Cc2ccccc2)cc1 (some centres not stated)	inconclusive: 0.0631 µM [falling, full curve, poor fit]
